{
  "source": "patent US20140308285A1",
  "about": "(Amgen, published 2014)",
  "binders": {"B1": {"name": "[…].5 (bispecific antibody)", "chain 1": "[omitted - about 120 residues]ASTKGPQVQLQESGPGLVKPSETLSLTCTVSGGSIISHYWSWIRQPPGKGLEWIGYIYYSGSTNYNPSLKSRVTISVDTSKNQFSLKLTSVTAADTAVYYCARDGWSAFDYWGQGTLVTVSSASTKGPSVFPLAPCSRSTSESTAALGCLVKDYFPEPVTVSWNSGALTSGVHTFPAVLQSSGLYSLSSVVTVPSSNFGTQTYTCNVDHKPSNTKVDKTVGGGGSAAAVPRDLEVVAATPTSLLISWDAPHHGVAYYRITYGETGGNSPVQEFTVPGSKSTATISGLKPGVDYTINVYAVLAYPRGYPLSKPISINYRTDYKDDDDKGSSHHHHHH", "chain 2": "not shown", "notes": "second chain: two variable regions, CL; also called anti-MSLN/anti-CD3 heterodimeric bispecific antibody; anti-MSLN/CD3ε heterodimeric bispecific antibody"}},
  "key": {"[1]": {"biological_target": "T1, human mesothelin (MSLN) on Ovcar-8 cells (human, UniProt Q13421 296-598)", "assay": "cell-based or functional assay"}, "[2]": {"biological_target": "T1, human mesothelin (MSLN) on Ovcar-8 cells", "T1 sequence (Q13421 other isoform, or with tags, fused parts or gaps limits assumed)": "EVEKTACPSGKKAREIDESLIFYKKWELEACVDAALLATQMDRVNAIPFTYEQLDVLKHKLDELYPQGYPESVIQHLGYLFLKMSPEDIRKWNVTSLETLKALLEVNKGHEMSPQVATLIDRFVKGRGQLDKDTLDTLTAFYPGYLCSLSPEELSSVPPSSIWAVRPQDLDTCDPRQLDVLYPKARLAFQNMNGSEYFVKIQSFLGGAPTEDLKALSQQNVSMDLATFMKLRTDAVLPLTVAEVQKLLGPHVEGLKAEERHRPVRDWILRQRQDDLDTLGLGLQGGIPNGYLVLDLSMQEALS", "assay": "cell-based or functional assay", "remark": "listed apart in the source"}, "[3]": {"biological_target": "T2, human CD3 (CD3 epsilon chain) on human T cells (human, UniProt P07766)", "T2 construct": "The assay used isolated human T cells, which carry CD3 as part of the TCR-CD3 complex; also called CD3ε", "T2 sequence (P07766 22-207 limits assumed)": "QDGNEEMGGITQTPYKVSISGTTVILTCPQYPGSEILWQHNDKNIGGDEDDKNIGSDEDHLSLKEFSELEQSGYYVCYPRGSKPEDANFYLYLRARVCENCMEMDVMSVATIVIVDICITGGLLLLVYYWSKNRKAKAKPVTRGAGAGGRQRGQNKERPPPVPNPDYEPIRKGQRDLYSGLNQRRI", "assay": "FACS on isolated human T cells, FITC anti-human light chain secondary antibody"}},
  "note": "Where two headings read alike, the source gives them in different places.",
  "data": [
    {"binder": "B1", "values": [
      {"measurement": "Human TDCC EC50 (pM), Ovcar-8 cells with human T cells", "setting": "[1]", "value": 0.12, "unit": "pM"},
      {"measurement": "Human TDCC EC50 (pM), Ovcar-8 cells with human T cells", "setting": "[2]", "value": 0.12, "unit": "pM"},
      {"measurement": "FACS binding (geometric mean)", "setting": "[3]", "value": 220}
    ]}
  ]
}
